Measured values reported in article PMC9663165.
Results are given in words; binding and its absence hold for the method and conditions named. Some binding calls cover weakened binding; strength is not graded here. For some assays here: Tags and fused reporters may be left off the sequences shown. Values belong to the substance of their own block, whether it stands above or below them.

Amino acid sequences for entries named in this document (tags omitted). A change or cut given only in a name is not applied to a line headed by its entry. Chains listed by the source or under a name are the forms on record and can include a tag or linker. Residues count along the entry.
full-length human p75 neurotrophin receptor fused at the cytoplasmic C-terminus to GFP (P08138, residues 29-427): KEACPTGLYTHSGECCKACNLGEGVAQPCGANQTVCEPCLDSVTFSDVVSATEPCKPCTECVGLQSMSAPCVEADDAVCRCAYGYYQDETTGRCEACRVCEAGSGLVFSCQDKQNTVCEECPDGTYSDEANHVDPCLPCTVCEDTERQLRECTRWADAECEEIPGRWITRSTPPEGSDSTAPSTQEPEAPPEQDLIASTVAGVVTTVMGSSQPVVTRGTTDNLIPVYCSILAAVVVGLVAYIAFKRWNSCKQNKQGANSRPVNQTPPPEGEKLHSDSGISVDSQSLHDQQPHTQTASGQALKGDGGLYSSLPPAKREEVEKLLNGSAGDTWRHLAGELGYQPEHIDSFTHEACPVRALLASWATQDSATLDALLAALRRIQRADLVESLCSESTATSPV
p75^NTR F136D-GFP (P08138, form named): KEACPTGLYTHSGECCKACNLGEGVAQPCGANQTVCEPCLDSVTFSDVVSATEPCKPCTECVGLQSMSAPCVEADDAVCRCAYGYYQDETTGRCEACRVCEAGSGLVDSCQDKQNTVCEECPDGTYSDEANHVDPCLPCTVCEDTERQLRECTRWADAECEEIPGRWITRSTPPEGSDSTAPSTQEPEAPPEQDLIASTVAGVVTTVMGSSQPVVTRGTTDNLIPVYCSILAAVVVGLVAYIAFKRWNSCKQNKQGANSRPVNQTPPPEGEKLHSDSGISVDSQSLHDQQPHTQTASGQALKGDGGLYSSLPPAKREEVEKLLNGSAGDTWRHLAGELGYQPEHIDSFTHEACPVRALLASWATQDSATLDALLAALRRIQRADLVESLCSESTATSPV
p75^NTR L165A-GFP (P08138, form named): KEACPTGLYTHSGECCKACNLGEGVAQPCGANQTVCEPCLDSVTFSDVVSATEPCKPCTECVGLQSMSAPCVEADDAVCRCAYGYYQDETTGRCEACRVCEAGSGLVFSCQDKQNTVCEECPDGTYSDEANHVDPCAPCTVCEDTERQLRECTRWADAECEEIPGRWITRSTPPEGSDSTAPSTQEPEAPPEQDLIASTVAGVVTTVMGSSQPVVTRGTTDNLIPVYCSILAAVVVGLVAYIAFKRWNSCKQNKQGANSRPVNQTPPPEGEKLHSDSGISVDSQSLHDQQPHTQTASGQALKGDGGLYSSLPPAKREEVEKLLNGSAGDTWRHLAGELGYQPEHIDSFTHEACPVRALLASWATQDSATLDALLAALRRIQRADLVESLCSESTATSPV
p75^NTR P150A-GFP (P08138, form named): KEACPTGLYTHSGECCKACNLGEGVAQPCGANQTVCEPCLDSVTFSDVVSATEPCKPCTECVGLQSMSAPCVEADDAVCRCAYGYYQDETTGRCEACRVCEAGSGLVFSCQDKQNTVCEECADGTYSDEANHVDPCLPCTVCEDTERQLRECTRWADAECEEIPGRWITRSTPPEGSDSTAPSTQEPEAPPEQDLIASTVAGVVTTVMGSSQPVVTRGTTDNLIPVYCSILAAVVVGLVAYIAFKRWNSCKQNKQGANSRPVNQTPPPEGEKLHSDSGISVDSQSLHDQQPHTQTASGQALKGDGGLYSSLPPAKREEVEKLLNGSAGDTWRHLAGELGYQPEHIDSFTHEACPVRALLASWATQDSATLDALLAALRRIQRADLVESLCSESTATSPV
p75^NTR P150D-GFP (P08138, form named): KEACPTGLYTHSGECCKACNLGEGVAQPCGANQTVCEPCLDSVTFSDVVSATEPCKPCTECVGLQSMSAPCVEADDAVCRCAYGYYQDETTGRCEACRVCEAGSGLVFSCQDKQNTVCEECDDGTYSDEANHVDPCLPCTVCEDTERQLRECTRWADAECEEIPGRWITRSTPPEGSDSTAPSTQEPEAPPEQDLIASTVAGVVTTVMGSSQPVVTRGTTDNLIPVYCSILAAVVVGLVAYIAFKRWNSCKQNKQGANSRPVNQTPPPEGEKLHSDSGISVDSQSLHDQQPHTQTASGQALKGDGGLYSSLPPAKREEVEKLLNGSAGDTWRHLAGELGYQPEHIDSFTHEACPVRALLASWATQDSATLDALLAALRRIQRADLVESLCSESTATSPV
p75^NTR S137A-GFP (P08138, form named): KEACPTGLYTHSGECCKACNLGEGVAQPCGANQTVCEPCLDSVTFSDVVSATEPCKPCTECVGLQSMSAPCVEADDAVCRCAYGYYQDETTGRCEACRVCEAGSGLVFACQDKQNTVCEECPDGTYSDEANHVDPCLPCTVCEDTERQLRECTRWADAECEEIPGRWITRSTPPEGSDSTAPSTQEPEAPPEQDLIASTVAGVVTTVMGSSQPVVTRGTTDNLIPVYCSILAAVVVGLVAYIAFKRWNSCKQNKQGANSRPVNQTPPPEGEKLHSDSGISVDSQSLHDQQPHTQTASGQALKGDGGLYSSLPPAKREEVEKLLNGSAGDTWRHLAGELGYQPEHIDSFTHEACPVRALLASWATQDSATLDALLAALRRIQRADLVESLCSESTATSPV
p75^NTR S137D-GFP (P08138, form named): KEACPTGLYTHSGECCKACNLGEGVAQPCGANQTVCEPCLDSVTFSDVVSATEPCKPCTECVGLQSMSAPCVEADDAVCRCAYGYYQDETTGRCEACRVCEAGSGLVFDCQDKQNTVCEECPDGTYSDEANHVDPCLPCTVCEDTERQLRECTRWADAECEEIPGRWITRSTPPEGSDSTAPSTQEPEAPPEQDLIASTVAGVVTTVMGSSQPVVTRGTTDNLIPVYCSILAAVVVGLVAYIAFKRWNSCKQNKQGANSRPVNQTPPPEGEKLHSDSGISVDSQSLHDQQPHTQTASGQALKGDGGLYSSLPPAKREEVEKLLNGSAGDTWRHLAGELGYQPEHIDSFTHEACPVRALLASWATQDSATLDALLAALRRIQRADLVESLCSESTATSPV
UniProt P42081, residues 24-329: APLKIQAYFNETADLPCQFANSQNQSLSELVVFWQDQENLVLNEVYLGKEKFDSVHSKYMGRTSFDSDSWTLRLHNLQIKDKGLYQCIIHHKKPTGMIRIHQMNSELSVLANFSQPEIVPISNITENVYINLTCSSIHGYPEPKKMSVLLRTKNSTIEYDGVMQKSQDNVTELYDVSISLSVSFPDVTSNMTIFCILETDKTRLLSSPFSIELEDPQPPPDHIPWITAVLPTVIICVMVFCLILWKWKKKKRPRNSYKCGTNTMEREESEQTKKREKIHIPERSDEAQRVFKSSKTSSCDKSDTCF
UniProt Q9NZQ7, residues 19-290: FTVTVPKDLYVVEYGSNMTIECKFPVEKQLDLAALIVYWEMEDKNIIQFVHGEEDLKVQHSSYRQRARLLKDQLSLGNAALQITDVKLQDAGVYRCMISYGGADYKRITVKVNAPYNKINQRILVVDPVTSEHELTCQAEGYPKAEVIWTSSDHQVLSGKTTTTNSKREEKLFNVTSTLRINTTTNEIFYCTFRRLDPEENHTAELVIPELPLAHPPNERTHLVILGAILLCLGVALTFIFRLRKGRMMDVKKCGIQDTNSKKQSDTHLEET
UniProt P10586, residues 30-1907: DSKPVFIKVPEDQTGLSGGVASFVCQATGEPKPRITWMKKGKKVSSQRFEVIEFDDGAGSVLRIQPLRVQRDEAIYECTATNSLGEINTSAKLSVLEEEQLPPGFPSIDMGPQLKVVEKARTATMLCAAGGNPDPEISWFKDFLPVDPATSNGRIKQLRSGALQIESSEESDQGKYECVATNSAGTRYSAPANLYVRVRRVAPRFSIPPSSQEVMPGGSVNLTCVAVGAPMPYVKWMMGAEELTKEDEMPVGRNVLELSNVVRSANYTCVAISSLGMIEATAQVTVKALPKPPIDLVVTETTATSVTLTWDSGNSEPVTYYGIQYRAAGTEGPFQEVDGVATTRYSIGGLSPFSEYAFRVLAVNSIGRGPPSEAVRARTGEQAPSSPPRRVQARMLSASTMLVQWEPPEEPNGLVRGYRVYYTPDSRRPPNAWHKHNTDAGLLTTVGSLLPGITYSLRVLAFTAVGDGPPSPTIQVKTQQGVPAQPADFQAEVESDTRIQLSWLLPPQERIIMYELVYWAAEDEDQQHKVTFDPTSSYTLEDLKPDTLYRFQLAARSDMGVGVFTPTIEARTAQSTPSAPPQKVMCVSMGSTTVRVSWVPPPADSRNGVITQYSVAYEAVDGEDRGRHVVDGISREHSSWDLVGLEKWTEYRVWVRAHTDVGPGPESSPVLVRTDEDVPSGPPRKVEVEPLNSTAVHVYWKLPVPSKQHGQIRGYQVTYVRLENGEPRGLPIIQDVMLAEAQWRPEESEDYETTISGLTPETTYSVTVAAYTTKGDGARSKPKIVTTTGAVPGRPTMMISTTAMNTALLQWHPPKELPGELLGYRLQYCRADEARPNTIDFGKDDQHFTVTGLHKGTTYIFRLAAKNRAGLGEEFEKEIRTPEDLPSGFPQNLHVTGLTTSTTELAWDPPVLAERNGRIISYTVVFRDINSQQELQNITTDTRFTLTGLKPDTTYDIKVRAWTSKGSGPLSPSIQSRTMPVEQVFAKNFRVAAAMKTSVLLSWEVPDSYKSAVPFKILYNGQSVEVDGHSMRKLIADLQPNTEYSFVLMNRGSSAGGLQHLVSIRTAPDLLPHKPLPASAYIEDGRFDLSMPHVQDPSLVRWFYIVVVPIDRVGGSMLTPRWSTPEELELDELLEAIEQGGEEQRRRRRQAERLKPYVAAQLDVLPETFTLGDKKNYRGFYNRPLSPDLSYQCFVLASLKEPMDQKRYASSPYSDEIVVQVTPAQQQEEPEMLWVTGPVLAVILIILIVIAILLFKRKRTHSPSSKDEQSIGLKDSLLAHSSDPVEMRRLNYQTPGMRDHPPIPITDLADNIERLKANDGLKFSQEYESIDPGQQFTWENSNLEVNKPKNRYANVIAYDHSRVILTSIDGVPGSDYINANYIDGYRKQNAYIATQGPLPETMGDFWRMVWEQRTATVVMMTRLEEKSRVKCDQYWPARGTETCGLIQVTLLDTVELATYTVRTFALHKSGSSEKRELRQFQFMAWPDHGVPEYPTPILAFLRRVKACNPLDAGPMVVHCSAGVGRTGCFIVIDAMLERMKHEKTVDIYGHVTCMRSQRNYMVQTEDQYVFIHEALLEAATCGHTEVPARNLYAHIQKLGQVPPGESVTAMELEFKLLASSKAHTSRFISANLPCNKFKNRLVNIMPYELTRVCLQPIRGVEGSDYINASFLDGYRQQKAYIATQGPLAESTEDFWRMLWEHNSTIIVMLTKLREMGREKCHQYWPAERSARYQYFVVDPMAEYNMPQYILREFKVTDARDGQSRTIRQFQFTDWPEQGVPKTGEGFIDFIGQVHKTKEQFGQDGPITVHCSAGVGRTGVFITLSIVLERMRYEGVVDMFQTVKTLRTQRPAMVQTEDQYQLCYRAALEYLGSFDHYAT
UniProt Q96PQ0, residues 51-1159: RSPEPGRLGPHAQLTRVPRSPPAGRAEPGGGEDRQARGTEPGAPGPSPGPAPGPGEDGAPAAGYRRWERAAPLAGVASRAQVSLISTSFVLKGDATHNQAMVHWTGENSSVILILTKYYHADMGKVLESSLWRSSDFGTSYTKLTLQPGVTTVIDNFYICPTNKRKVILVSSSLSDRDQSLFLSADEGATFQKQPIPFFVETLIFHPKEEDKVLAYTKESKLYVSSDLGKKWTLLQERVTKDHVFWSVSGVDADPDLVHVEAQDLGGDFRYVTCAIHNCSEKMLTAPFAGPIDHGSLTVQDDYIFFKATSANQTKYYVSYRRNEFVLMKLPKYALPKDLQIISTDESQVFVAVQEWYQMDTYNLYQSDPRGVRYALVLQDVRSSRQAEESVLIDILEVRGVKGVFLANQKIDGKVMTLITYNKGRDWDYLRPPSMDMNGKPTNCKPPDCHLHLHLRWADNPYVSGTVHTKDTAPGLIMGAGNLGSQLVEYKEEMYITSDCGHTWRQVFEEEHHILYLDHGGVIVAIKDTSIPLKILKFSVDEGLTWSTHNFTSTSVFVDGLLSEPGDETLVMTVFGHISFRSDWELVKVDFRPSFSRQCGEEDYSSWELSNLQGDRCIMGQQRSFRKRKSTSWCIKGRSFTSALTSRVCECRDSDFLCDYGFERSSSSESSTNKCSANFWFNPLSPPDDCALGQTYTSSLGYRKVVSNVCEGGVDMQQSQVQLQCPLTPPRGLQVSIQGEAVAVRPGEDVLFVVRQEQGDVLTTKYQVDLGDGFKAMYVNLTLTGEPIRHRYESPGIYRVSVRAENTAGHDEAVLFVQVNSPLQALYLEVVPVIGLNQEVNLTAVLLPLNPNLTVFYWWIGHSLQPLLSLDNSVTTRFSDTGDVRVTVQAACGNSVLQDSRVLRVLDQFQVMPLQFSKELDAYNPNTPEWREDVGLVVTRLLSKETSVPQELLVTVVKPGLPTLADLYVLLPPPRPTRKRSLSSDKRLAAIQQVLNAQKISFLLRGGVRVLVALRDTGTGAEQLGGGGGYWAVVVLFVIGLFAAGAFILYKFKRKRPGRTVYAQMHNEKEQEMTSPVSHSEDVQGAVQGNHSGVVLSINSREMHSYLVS

Assays:
[1] = biological target: full-length human p75 neurotrophin receptor fused at the cytoplasmic C-terminus to GFP (human) (UniProt P08138); test: flow cytometry on cells; B7-1–Fc or B7-1N82E–Fc titrated against cells expressing CTLA-4, CD28 or p75NTR; only the binder purified
[2] = biological target: full-length human p75 neurotrophin receptor fused at the cytoplasmic C-terminus to GFP (human) (UniProt P08138); test: flow cytometry on cells; ligand competition: NGF against hB7-1 for binding to p75NTR; competition at micromolar NGF; only the binder purified
[3] = biological target: full-length human p75 neurotrophin receptor fused at the cytoplasmic C-terminus to GFP (human) (UniProt P08138); test: flow cytometry on cells; competition: B7-1–Fc on fluorescent protein A beads bound to HEK293 cells expressing p75NTR; CTLA-4–Fc, CD28-Fc or isotype control titrated in; only the binder purified
[4] = biological target: B7-2, GFP-tagged library member (human) (UniProt P42081); test: flow cytometry on cells; cell-cell conjugates: cells expressing the mCherry-tagged query mixed with cells individually expressing GFP-tagged members of the human Ig and TNFR superfamily library; double-positive events; PBS 0.2% BSA, pH 7.4
[5] = biological target: T1, ICOSL, GFP-tagged library member (human) (UniProt O75144); test: as above
T1 sequence: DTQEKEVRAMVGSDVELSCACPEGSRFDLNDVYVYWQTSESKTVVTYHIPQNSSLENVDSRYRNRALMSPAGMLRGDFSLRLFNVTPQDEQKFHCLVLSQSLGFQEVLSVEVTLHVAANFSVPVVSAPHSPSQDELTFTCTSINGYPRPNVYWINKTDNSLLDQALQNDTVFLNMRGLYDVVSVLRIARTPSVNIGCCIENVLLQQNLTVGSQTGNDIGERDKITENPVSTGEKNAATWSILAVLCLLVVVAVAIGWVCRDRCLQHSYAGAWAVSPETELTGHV

[6] = biological target: human B7-1-mCherry fusion protein (human) (UniProt P33681); test: as above
[7] = biological target: programmed death-ligand 1 (PD-L1), GFP-tagged library member (human) (UniProt Q9NZQ7); test: as above
[8] = biological target: protein tyrosine phosphatase receptor type F (PTPRF) (human) (UniProt P10586); test: as above
[9] = biological target: full-length human p75 neurotrophin receptor fused at the cytoplasmic C-terminus to GFP (human) (UniProt P08138); test: flow cytometry on cells; cell-cell conjugates: HEK293F cells expressing 92 B7-1–mCherry point mutants (IgV domain) against HEK293F cells expressing CTLA-4–GFP, CD28-GFP or p75NTR-GFP; percent of WT binding
[10] = biological target: human p75 neurotrophin receptor-GFP (human) (UniProt P08138); test: flow cytometry on cells; recombinant B7-1-Fc or B7-1N82E-Fc titrated (up to 1.2 uM) onto cells expressing CTLA-4, CD28 or p75NTR; detected with an anti-mouse 647 labelled antibody; EC50 calculated; only the binder purified
[11] = biological target: human p75 neurotrophin receptor-GFP (human) (UniProt P08138); test: flow cytometry on cells; cell-cell binding of sorted stable HEK293 lines (B7-1-mCherry, B7-1N82E-mCherry, B7-2-mCherry) with GFP-tagged query cells; % cell bound
mCD28-GFP (mouse) = mCD28-GFP (mouse) (UniProt P31041); test: as above
mCTLA4-GFP (mouse) = mCTLA4-GFP (mouse) (UniProt P09793); test: as above
SORCS1-GFP = biological target: T2, SORCS1-GFP (UniProt Q8WY21); test: flow cytometry on cells; cell-cell binding of individually transfected cells: B7-1-mCherry cells mixed with cells expressing a GFP-tagged receptor; double-positive events as % bound; PBS 0.2% BSA, pH 7.4
T2 sequence: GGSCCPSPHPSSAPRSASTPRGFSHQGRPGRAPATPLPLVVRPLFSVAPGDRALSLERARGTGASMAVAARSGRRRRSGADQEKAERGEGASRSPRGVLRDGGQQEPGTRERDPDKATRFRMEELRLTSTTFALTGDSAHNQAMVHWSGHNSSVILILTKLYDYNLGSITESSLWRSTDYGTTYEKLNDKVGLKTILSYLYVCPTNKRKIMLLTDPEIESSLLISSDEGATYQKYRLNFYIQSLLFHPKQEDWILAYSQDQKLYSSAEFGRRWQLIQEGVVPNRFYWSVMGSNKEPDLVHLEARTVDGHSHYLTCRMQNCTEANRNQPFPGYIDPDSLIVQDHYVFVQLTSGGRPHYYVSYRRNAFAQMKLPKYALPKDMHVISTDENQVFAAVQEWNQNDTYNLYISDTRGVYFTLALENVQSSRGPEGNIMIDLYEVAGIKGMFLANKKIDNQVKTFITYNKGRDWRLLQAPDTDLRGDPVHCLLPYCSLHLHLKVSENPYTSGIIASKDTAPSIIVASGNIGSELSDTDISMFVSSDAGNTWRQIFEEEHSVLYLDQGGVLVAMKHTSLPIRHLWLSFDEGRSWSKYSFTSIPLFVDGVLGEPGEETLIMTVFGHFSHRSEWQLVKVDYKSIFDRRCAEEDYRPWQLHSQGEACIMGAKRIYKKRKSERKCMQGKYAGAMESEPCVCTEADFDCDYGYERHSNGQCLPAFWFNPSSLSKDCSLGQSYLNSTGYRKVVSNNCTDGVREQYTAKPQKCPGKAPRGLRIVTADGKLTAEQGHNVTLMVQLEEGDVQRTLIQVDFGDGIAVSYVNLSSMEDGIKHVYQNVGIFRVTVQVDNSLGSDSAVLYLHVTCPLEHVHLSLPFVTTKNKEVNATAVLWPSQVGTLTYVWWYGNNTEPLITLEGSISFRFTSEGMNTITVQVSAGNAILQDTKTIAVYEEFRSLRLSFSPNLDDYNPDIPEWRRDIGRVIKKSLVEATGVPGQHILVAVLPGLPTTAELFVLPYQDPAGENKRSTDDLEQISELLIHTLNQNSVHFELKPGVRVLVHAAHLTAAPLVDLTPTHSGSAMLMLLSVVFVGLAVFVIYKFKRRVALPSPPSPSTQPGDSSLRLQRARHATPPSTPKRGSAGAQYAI

SORCS2-GFP = SORCS2-GFP (UniProt Q96PQ0); test: as above
SORCS3-GFP = biological target: T3, SORCS3-GFP (UniProt Q9UPU3); test: as above
T3 sequence: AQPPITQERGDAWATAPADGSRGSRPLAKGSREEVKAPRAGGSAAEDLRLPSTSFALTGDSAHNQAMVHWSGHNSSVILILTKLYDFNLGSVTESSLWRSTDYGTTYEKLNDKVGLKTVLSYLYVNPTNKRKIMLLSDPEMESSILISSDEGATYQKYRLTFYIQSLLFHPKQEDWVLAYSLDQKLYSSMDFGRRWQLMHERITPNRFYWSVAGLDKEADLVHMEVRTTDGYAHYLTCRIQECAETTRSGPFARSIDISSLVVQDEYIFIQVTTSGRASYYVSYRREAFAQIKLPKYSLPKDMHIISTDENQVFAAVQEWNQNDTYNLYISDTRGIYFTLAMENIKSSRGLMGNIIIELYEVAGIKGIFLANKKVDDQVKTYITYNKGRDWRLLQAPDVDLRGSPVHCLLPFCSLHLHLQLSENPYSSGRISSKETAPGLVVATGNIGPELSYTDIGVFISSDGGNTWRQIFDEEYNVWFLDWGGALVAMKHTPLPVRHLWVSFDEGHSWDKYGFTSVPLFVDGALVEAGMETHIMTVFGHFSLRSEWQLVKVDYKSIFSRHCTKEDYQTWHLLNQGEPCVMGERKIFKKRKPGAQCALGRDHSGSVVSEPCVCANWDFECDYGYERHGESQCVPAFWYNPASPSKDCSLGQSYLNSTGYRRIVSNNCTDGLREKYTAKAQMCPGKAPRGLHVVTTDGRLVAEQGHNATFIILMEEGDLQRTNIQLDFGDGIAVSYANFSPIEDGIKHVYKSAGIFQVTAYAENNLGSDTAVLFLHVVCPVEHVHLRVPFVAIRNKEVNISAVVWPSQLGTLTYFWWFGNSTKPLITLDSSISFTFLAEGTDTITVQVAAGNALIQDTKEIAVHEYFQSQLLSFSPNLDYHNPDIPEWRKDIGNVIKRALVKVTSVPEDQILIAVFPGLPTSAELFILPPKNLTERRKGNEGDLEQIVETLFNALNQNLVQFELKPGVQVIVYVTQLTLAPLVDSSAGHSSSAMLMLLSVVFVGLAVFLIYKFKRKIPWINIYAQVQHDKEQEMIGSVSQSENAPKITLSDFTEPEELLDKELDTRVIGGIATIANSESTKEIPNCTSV

Sortilin-GFP = Sortilin-GFP (UniProt Q99523); test: as above
[12] = biological target: human p75 neurotrophin receptor-GFP (human) (UniProt P08138); test: as above
[13] = biological target: human p75 neurotrophin receptor-GFP (human) (UniProt P08138); test: flow cytometry on cells; high-throughput cell-cell screen: HEK293F query cells (C-terminal mCherry fusion) mixed 1:1 in 96-well format with cells each expressing one member of the Ig/TNFR superfamily library (C-terminal GFP); double-positive events as % bound; PBS 0.2% BSA, pH 7.4
[14] = biological target: p75^NTR F136D-GFP (human) (UniProt P08138); test: flow cytometry on cells; cell-cell conjugates: cells expressing p75NTR-GFP point mutants against cells expressing PTPRF-mCherry
[15] = biological target: p75^NTR L165A-GFP (human) (UniProt P08138); test: as above
[16] = biological target: p75^NTR P150A-GFP (human) (UniProt P08138); test: as above
[17] = biological target: p75^NTR P150D-GFP (human) (UniProt P08138); test: as above
[18] = biological target: p75^NTR S137A-GFP (human) (UniProt P08138); test: as above
[19] = biological target: p75^NTR S137D-GFP (human) (UniProt P08138); test: as above
[20] = biological target: full-length human p75 neurotrophin receptor fused at the cytoplasmic C-terminus to GFP (human) (UniProt P08138); test: flow cytometry on cells; cell-cell conjugates: cells expressing the mCherry-tagged query mixed with cells individually expressing GFP-tagged members of the human Ig and TNFR superfamily library; double-positive events; PBS 0.2% BSA, pH 7.4

Substance: B7-1–Fc (from UniProt P33681 35-233) (Fc fusion)
binding [1]: binds
binding [2]: binds
binding [3]: binds

Substance: full-length human p75 neurotrophin receptor fused at the cytoplasmic C-terminus to GFP (from UniProt P08138 29-427)
binding [4]: no binding
binding [5]: no binding
binding [6]: binds
binding [7]: no binding
binding [8]: binds

Substance: hB7-1 I92D–mCherry (from UniProt P33681 35-288) (ligand)
binding [9]: binds

The remaining lines, values ahead:

binding [10]: no binding (tested: 1.2 µM)
Substance: hB7-1N82E-mIgG2A (from UniProt P33681 35-233) (Fc fusion)

binding [11]: binds
binding (mCD28-GFP (mouse)): binds
binding (mCTLA4-GFP (mouse)): binds
binding (SORCS1-GFP): no binding
binding (SORCS2-GFP): no binding
binding (SORCS3-GFP): no binding
binding (Sortilin-GFP): no binding
binding [12]: binds
binding [13]: binds
Substance: human B7-1-mCherry fusion protein (from UniProt P33681 35-288) (ligand)

binding [14]: binds
binding [15]: binds
binding [16]: binds
binding [17]: binds
binding [18]: binds
binding [19]: binds
binding [20]: binds
Substance: protein tyrosine phosphatase receptor type F (PTPRF) (from UniProt P10586 30-1907)
